# From PubChem BioAssay AID493208 (National Center for Advancing Translational Sciences (NCATS), 2011)
# Among all 44,000 compounds or so, about 340 (0.77%) were called active. Not shown: some 5% with an inconclusive outcome. Calls follow the shape of the dose curve; as a rule, active = well fitted inhibition curve with a large enough effect; inconclusive = small, poorly fitted or top-dose-only effect; inactive = flat fitted curve, though single readings scatter. This is one part of the list.
# Assay: Acumen qHTS Assay for Inhibitors of the mTORC1 Signaling Pathway in MEF (Tsc2-/-, p53-/-) Cells: Sytravon; also: nearly all actives have a fitted effect of over 50% in size;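 as to activity change, negative = inhibition: plate controls were DMSO for no effect and rapamycin for full effect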
# Details: phospho-rpS6 immunofluorescence/PI, 24 h; series mostly up to 38.3 µM; activity change, negative = inhibition: at the top concentration
# How it was run: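 Cell-based qHTS: Tsc2-/- p53-/- MEF, 24 h cpd, 37 °C; fix/perm, anti-phospho-S6 Alexa-488 + PI; Acumen 488 nm scan; pS6/PI ratio, % positive cells; rapamycin 7.5 nM = inhibition ref; PI count = viability.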
# Potency is read from the fitted curve at half-maximal effect.
SMILES,"activity change, negative = inhibition",Potency
Cc1ccc(-n2nc(C(=O)N3CCCCC3C)c(=O)n(C)c2=O)cc1 (stereo not drawn),inactive: -4.39%,–
CCOc1ccccc1NC(=O)C1CCN(S(=O)(=O)c2ccc(Br)cc2)CC1,inactive: 0.794%,–
Cc1ccc2c(c1)c(=O)c1ccccc1n2CCCC(=O)Nc1ccc(F)cc1F,inactive: -2.1%,–
O=C(NC1CC(=O)N(c2ccccc2)C1)C1CCCC1 (stereo not drawn),inactive: -0.492%,–
CC(Sc1ncc(S(=O)(=O)c2ccc(C(C)C)cc2)c(N)n1)C(=O)Nc1ccccc1 (stereo not drawn),inactive: -8.16%,–
COc1ccc(NC(=O)Cn2c(=O)n(-c3ccc(Cl)cc3)c(=O)c3c(C)c(C(=O)N(C)C)sc32)cc1Cl,inactive: -3.72%,–
COC(=O)c1ccc2nc(C)cc(Nc3ccc(O)cc3)c2c1,inactive: -11.1%,–
CCOC(=O)c1cc(-c2ccc(F)cc2)n(CCC(=O)Nc2ccccc2OC)c1C,inactive: -1.06%,–
Cc1ccc(CSc2nc(=O)c3c(C)cc(C)nc3n2C2CC2)cc1,inactive: 0%,–
COC(=O)c1cc(Cl)c(NC(=O)/C=C/c2ccc(Cl)cc2Cl)cc1OC,inactive: -3.22%,–
Cc1cccc(C2NC(=O)c3c(sc4c3CCN(C)C4)N2)c1O (stereo not drawn),inactive: 6.79%,–
CCOC(=O)c1ccc(NC2=CC(c3ccc(Br)cc3)N(c3ccc(C(=O)OCC)cc3)C2=O)cc1 (stereo not drawn),inactive: -10.5%,–
Cc1cccc(Oc2nc3c(C)cccn3c(=O)c2/C=C(\C#N)c2nc3ccccc3s2)c1,inactive: 1.52%,–
CCOC(=O)c1ccc(NC(=O)C(=O)NCc2ccco2)cc1,inactive: 0.345%,–
COc1cccc(Cc2nc3ccccc3nc2SCC(=O)N2CCc3ccccc32)c1,inactive: -3.46%,–
O=S(=O)(c1ccccc1)c1nc(-c2cccc(Cl)c2)oc1NCc1ccccc1,inactive: -8.05%,–
COc1ccc(Br)c2c1-c1nc(NC(=O)c3ccccc3SC)sc1C2,inactive: -1.16%,–
COCCNC(=O)CSc1nnc(-c2ccc(OC)c(OC)c2)c(-c2ccc(OC)c(OC)c2)n1,inactive: 0.584%,–
CCOc1ccc(N2CC(c3nc4ccccc4n3CCCOc3ccc(OC)cc3)CC2=O)cc1 (stereo not drawn),inactive: -7.21%,–
COc1ccccc1-c1c(C)nn2c(N3CCN(c4ccc(Cl)cc4)CC3)cc(C)nc12,inactive: 4.93%,–
CCCCOc1ccc(S(=O)(=O)Nc2cccc(-c3ccc(N4CCOCC4)nn3)c2)cc1,inactive: -4.42%,–
CC(Sc1nc(-c2ccccc2)c(C#N)c(=O)[nH]1)C(=O)Nc1ccc(F)cc1 (stereo not drawn),inactive: -4.2%,–
CCOC(=O)c1ccc(Nc2nc(C)cc(C)n2)cc1,inactive: -1.31%,–
COc1ccc(N(CC(=O)N2CCN(c3cc(C)ccc3C)CC2)S(=O)(=O)c2c(C)noc2C)cc1,inactive: 3.46%,–

SMILES,"activity change, negative = inhibition",Potency
CC(C)c1ccc(C2c3c(-c4ccccc4O)n[nH]c3C(=O)N2CCc2ccccc2)cc1 (stereo not drawn),inactive: 2.83%,–
Cc1ccc(-n2ncc3c(NNC(=O)c4ccccc4C)ncnc32)cc1,inactive: 10.3%,–
COc1ccc(-c2c(C)nn3c(N4CCC(C(=O)NCCC(C)C)CC4)cc(C)nc23)cc1OC,inactive: -17.2%,–
CC(C)CCn1c(SCc2ccc(F)cc2Cl)nc2ccsc2c1=O,inactive: -15.1%,–
CC1=C(C(=O)Nc2ccccc2)C(c2ccc(C(=O)O)cc2)n2nc(SCC(=O)c3ccc(C)cc3)nc2N1 (stereo not drawn),inactive: 2.36%,–
Cc1ccc(Cn2c(=O)c3c(nc4n3CCN4c3cc(C)cc(C)c3)n(C)c2=O)cc1,inactive: 11.9%,–
CCN(CC)CCn1c(=N)n(CC(O)COc2ccccc2C)c2ccccc21 (stereo not drawn),–,active: 11.7 µM
CCc1ccc(-c2[nH]c3c(c2-c2c(-n4cccc4)n(C)c(=O)n(C)c2=O)c(=O)n(C)c(=O)n3C)cc1,inactive: -8.17%,–
COc1ccc(-c2nc(CCNC(=O)c3cc(OC)c(OC)c(OC)c3)cs2)cc1,inactive: 1.95%,–
COCCCNC(=O)c1ccc(NC(=O)N2CCCCc3ccccc32)cc1,inactive: -0.833%,–
COc1ccc(CNC(=O)Cc2c(C)c3c(cc(C)c4c(C)coc43)oc2=O)cc1,inactive: 2.18%,–
COc1ccc(Cl)cc1NC(=O)CCCn1c(=O)c2cccn2c2cccnc21,inactive: -15.4%,–
CCCN1CCN(CC2=C(C(=O)OCC)C(c3ccc(Cl)cc3)NC(=O)N2)CC1 (stereo not drawn),inactive: -13.1%,–
CCOC(=O)N1CCc2c(sc(NCc3ccc(OC)c(Br)c3)c2C(=O)Nc2cc(OC)ccc2OC)C1,inactive: 1.87%,–
CCOC(=O)c1ccccc1NC(=O)N(Cc1ccc(C)cc1)Cc1cccn1-c1nnc(N2CCCC2=O)s1,inactive: 1.37%,–
COC(=O)c1c(NC(=O)c2ccc(S(=O)(=O)N3CCCCC3C)cc2)sc2c1CCN(C(C)C)C2 (stereo not drawn),inactive: -1.25%,–
Cc1ccccc1-c1noc(CSc2nnc(Cc3ccccc3)n2-c2ccc(F)cc2)n1,inactive: -0.515%,–
COc1ccc(-c2noc(CSc3nnc(-c4ccncc4)n3-c3ccccc3)n2)cc1,inactive: -6.84%,–
CCC(C)n1c(=N)c(S(=O)(=O)c2ccc(C)cc2)cc2c(=O)n3cc(C)ccc3nc21 (stereo not drawn),inactive: -1.01%,–
COc1cccc(NC(=O)Cn2c(=O)n(CCCC(=O)NCc3ccc4c(c3)OCO4)c(=O)c3ccccc32)c1,inactive: -5.85%,–
Cc1ccc(CNC(=O)c2c(-c3ccccc3F)noc2C)o1,inactive: 14.1%,–
O=C(Nc1ccc(S(=O)(=O)N2CCC(c3nc4ccccc4s3)CC2)cc1)c1ccccc1F,inactive: -21.6%,–
Cc1cccc(C(=O)Nc2ccc(N3CCC(CCN4CCOCC4)CC3)c(C(=O)O)c2)c1,inactive: -3.13%,–
CCN(C(=O)NCc1noc2ccccc12)c1cc(C)ccc1C,inactive: -4.1%,–

SMILES,"activity change, negative = inhibition",Potency
CCOC(=O)c1nc(Nc2cccc(C)c2)c2ccccc2n1,inactive: 4.1%,–
CCCCCOc1ccc(C(=O)N(Cc2ccccc2)C2CCS(=O)(=O)C2)cc1 (stereo not drawn),inactive: -12.7%,–
CCOc1ccc(CNC(=O)CCn2cccn2)cc1OC,inactive: -2.57%,–
CCN(CCCNC(=O)c1nn(-c2ccc(OC)cc2)c(=O)c2c1c1ccccc1n2C)c1cccc(C)c1,inactive: 1.83%,–
COc1ccc(-c2cccc(NS(=O)(=O)c3cc(C)c(Cl)cc3C)c2)nn1,inactive: 0.0941%,–
Cc1cccc(CS(=O)(=O)Cc2ccc(C(=O)NCc3ccc(Cl)cc3)o2)c1,inactive: -11.3%,–
CCCCC12CN3CC(C)(CN(C1)C3c1c(C)[nH]c(=O)[nH]c1=O)C2=O (stereo not drawn),inactive: -10.1%,–
CCOc1ccc(CCNC(=O)c2cc3c(-c4cccc(OC)c4)nn(C)c3s2)cc1OCC,inactive: -10.4%,–
CCOc1ccc(NC(=O)CN2C(=O)C(c3ccccc3)=NC23CCCCCC3)cc1,inactive: -7.17%,–
Cc1cccc(Cn2c(C)c(C)c3cc(C(=O)NCc4ccc(C)o4)ccc32)c1,inactive: 0%,–
Cc1cc(NC(=O)CN(C)S(=O)(=O)c2ccc3c(c2)CCC(=O)N3)ccc1Br,inactive: 1.16%,–
CCC(C(=O)NCCc1ccc(Cl)cc1)n1nc(C)c2c(C)n(-c3ccccc3)nc2c1=O (stereo not drawn),inactive: -1.43%,–
Cc1nc2nc(SCC(=O)NC(C)c3ccccc3)nn2c(C)c1Cc1c(F)cccc1Cl (stereo not drawn),inactive: 1.77%,–
CCOc1ccc(CN2C(=O)c3ccccc3Sc3ccc(C(=O)NCc4ccc(C)cc4)cc32)cc1,inactive: -2.05%,–
COC(=O)c1ccc(NC(=O)CC2C(=O)N(c3cccc(OC)c3)C(=O)N2Cc2cccc(OC)c2)cc1 (stereo not drawn),inactive: 0%,–
COc1cccc(CSc2nc3n(n2)C(c2ccccc2C)C(C(=O)Nc2ccccc2OC)=C(C)N3)c1 (stereo not drawn),inactive: -3.92%,–
O=C(CSc1oc(-c2ccco2)nc1S(=O)(=O)c1ccc(Cl)cc1)c1ccccc1,inactive: 0%,–
COCCCn1c(=N)c(C(=O)NC2CCCC2)cc2c(=O)n3ccccc3nc21,inactive: -0.367%,–
Cc1ccc(-c2nc3c4cnn(-c5cc(Cl)ccc5Cl)c4ncn3n2)cc1,inactive: 1.26%,–
Cc1ccc(CCNC(=O)CCSCc2ccc(Cl)cc2)cc1,inactive: 11.3%,–
Cc1ccc(S(=O)(=O)c2nnn3c2nc(Nc2ccc(C(C)C)cc2)c2sccc23)cc1C,inactive: -0.393%,–
CCOc1ccc(-n2c(SCc3nc(-c4ccccc4C)no3)nnc2-c2ccccc2)cc1,inactive: -3.82%,–
CC(C)Cc1nn2c(=O)cc(COC(=O)c3ccccc3NC(=O)c3ccccc3)nc2s1,inactive: 0.658%,–
CC(=O)Nc1ccc(NC(=O)CN2C(=O)CN(C)C(=O)c3ccccc32)cc1,inactive: 0.909%,–

SMILES,"activity change, negative = inhibition",Potency
CCCn1c(=O)c2sccc2n2c(CCCC(=O)NCCOC)nnc12,inactive: 4.14%,–
CN(C)c1ccc(CNc2nc(-c3ccco3)nn2C(=O)c2cccc([N+](=O)[O-])c2)cc1,inactive: -0.107%,–
CN(C)c1ccc(CN(CC2CCCO2)C(=O)COc2ccc(Cl)cc2)cc1 (stereo not drawn),inactive: -7.71%,–
CCc1ccc(-n2c(C)nc3cc(C(=O)NCCc4ccccc4)ccc32)cc1,inactive: 9.94%,–
COc1cccc(CN2C(=O)c3ccccc3C2C(=O)NCCc2ccc(OC)c(OC)c2)c1 (stereo not drawn),inactive: 11.6%,–
COc1ccccc1NC(=O)CSc1ncc2c(n1)-c1cc(Cl)ccc1N(C)S2(=O)=O,inactive: 8.43%,–
CC(C)CC(=O)Nc1ccc(C(=O)OCc2cc(=O)n3nc(C4CCCCC4)sc3n2)cc1,inactive: 9.06%,–
Cc1nc(N2CCCC2)ncc1C(=O)Nc1ccccc1,inactive: 14.7%,–
Cc1cc(O)c(C(c2cccc(Cl)c2)N2CCN(c3ccccc3)CC2)c(=O)n1Cc1ccco1 (stereo not drawn),inactive: -3.7%,–
CC(=O)N1CCCc2cc(S(=O)(=O)N3CCCC(C(=O)NCc4ccc(Cl)cc4)C3)ccc21 (stereo not drawn),inactive: 0.182%,–
CCC1CN(C(=O)NCc2ccc(F)cc2)c2ccccc2O1 (stereo not drawn),inactive: 5.38%,–
Cc1ccc(NC(=O)c2ccco2)c(OCc2cc(=O)n3cc(C)sc3n2)c1,inactive: 0.117%,–
COc1ccc(-n2c(=O)c3c4c(sc3n(Cc3cc(=O)n5c(C)cccc5n3)c2=O)CCC4)c(OC)c1,inactive: -10.4%,–
CCc1ccc(CNC(=O)CSCc2cnn(-c3ccccc3)c2-n2cccc2)cc1,inactive: -7.47%,–
Cc1ccc(Cn2c(=O)c3ccccc3n3c(-c4ccccc4)nnc23)cc1,inactive: 4.64%,–
COc1ccc(C2CC(=O)N3CN(C4CCCCC4)CSC3=C2C#N)cc1 (stereo not drawn),inactive: 0.638%,–
COc1ccc(NC(=O)CCCS(=O)(=O)c2nc(-c3ccc(OC)c(OC)c3)cc(C(F)(F)F)n2)cc1OC,–,active: 11.7 µM
Cc1ccc(OCC(=O)Nc2ccc3nc(SCC(=O)N4CCCC4)sc3c2)cc1C,inactive: -0.634%,–
O=C(Nc1ccc2c(c1)N(C1CCCC1)C(=O)c1ccccc1S2)c1ccccc1,inactive: -1.72%,–
COc1cccc(-c2nc(CS(=O)CC(=O)N3CCN(c4cccc(C(F)(F)F)c4)CC3)c(C)o2)c1 (stereo not drawn),inactive: -16.4%,–
COc1ccc(CCNC(=O)C(=O)NCC(c2cccs2)S(=O)(=O)c2ccccc2)cc1 (stereo not drawn),inactive: -9.28%,–
